The full ranking holds about 110,000 compounds; the median of “z-score” is about -0.1, and the highest 2% start at about 2. The list shows a part of the results.
What follows are compounds tested against Metabotropic glutamate receptor 8 (Rattus norvegicus) (UniProt P70579) (assay: mGluR8 Gi/Go-coupled signaling modulation – cell-based, rat, thallium flux, HTS, primary screen (AID 488969)). Details: HEK293 rat mGluR8, GIRK (G protein-gated inwardly rectifying potassium channel) thallium flux, FluoZin2; at 10 µM; stronger effect = higher value; submaximal glutamate (EC20) added with thallium.
Sequence of UniProt P70579 (P70579 whole entry, looked up): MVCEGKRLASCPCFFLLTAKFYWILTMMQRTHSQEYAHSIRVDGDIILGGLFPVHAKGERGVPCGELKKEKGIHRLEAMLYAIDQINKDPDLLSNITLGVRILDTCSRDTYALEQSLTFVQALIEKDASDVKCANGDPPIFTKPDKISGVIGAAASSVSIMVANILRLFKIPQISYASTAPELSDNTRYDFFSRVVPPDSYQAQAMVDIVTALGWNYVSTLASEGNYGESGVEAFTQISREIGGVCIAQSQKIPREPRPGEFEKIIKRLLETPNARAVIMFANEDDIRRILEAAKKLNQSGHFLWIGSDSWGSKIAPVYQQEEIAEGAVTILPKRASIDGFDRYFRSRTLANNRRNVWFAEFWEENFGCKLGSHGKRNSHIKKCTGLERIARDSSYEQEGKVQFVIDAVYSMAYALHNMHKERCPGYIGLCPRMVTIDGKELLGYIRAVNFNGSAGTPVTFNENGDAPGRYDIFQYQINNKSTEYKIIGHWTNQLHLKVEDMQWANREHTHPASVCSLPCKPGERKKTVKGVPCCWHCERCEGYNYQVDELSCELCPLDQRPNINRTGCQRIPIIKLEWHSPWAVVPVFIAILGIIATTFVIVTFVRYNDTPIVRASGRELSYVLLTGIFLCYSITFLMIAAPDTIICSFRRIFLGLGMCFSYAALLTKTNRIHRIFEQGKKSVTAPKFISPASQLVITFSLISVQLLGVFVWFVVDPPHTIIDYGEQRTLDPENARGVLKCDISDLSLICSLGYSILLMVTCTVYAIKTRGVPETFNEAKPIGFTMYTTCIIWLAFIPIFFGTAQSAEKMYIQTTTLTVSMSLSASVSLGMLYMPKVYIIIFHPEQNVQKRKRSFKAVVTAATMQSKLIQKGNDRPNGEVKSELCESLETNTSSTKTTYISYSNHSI

| SMILES | z-score |
| --- | --- |
| Cc1ccc(CCSc2ccc(C(C)C)cc2)cn1 | -0.399 |
| CCOC(=O)c1nnn(-c2nonc2N)c1CS(=O)(=O)c1ccccc1 | 1.2 |
| S=C(NCCN1CCOCC1)Nc1ccccc1Cl | -0.238 |
| Cc1c(N/N=C(\C#N)C(=O)c2ccccc2)c(=O)n(-c2ccccc2)n1C | 0.187 |
| COc1ccc(CCNc2oc(COc3ccc(Br)cc3)nc2C#N)cc1OC | -0.269 |
| COc1ccc(NC(=O)CN2c3cccc4cccc(c34)S2(=O)=O)cc1 | -0.497 |
| Cc1nn2c3c(cnc2c1-c1ccccc1)C(=O)CC(c1ccco1)C3 (centres undefined) | -0.497 |
| CCCCC(=O)Nc1ccc(NC(=S)NC(=O)c2cccs2)cc1OC | 1.85 |
| Cc1cc([N+](=O)[O-])c(N2CCC[C@@H]2C(=O)O)c([N+](=O)[O-])c1 | -0.356 |
| Cc1cccc(C(=O)NC(=S)Nc2ccc(S(=O)(=O)N(C)c3ccccc3)cc2)c1 | 1.39 |
| COCCCNC(=O)c1cn(CC(C)C)c(=O)c2c1c1ccccc1n2C | -0.0987 |
| CCc1nc(SCC(=O)Nc2c(C)nn(C)c2C)c2cnn(-c3ccccc3)c2n1 | -0.873 |
| O=C(NC1CCCCC1)C(c1ccccc1)N1CCc2ccccc21 (centres undefined) | 0.0677 |
| S=C(NCCc1ccccc1)NCCc1ccccc1 | -0.0491 |
| O=C(Nc1ccccc1)Nc1ccccc1C(=O)NCc1ccco1 | 0.367 |
| O=C(CCOc1ccccc1)Nc1cccc(S(=O)(=O)Nc2ccccc2Cl)c1 | 0.291 |
| O=C(CSc1nc(-c2ccccc2)c(-c2ccccc2)[nH]1)Nc1ccc2c(c1)OCO2 | -0.21 |
| Cc1cc(C)n(Cc2ccccc2Cl)n1 | -0.335 |
| CC(=O)N1CCN(c2ccc(Nc3ncnc4c3oc3ccccc34)cc2)CC1 | -0.134 |
| Cn1c(N)c(C(=O)COC(=O)c2ccc3c(c2)OCCO3)c(=O)n(C)c1=O | 0.00498 |
| CC1(C)C(=O)OC(c2ccccc2)C2(CCCC2)C1=O (centres undefined) | -0.477 |
| c1ccc(C(c2nnnn2Cc2ccco2)N2CCN(c3nc4ccccc4s3)CC2)cc1 (centres undefined) | 0.814 |

| SMILES | z-score |
| --- | --- |
| CCCCSc1nnc([C@@H](NC(=O)OC(C)(C)C)C(C)C)o1 | 0.185 |
| O=C(Nc1cnn(Cc2ccc(Cl)cc2Cl)c1)c1cc(-c2cccs2)on1 | -0.108 |
| CN1CCC(N2CCCC(C(=O)O)C2)CC1 (centres undefined) | -0.282 |
| COc1cc(NC(=O)c2c3c(nc4ccccc24)CCC3)cc(OC)c1 | 0.174 |
| CC1(C)Cc2nc3sc4c(OCc5ccccc5)ncnc4c3cc2CO1 | -0.0531 |
| Cn1ncc(C#N)c1/N=C/N1CCOCC1 | -0.742 |
| CC1=CC(C)(C)N2C(=O)C3(C(C#N)=C(N)Oc4cc(O)ccc43)c3c(C)c(C)cc1c32 (centres undefined) | 0.981 |
| CCOc1ccc(/C=N/NC(=O)c2cc(-c3ccco3)nc3ccccc23)cc1 | 0.00219 |
| CCCC12CN3CC(C)(CN(C1)C31C(=O)Nc3ccc(C)cc31)C2=O (centres undefined) | 0.6 |
| CCCCNC(=O)Nc1ccccn1 | -0.557 |
| Cc1ccc(CN2CCN(C(=O)c3ccco3)CC2)cc1 | 0.292 |
| N#Cc1cnn(-c2nc3sc4c(c3c(=O)[nH]2)CCCC4)c1N | 0.11 |
| COc1cccc(CSc2nc3cc4c(cc3cc2C)OCCO4)c1 | -0.176 |
| Nc1nnnn1/N=C/c1ccc(N2CCCCC2)c([N+](=O)[O-])c1 | 1.18 |
| COc1ccc(NC2CC(=O)N(C(C)C)C2=O)cc1 (centres undefined) | 1.17 |
| Cc1cc(OCCCn2cnc3ccccc3c2=O)ccc1[N+](=O)[O-] | -0.824 |
| Cc1ccc(-c2nn(-c3ccccc3)cc2CN(Cc2ccccc2)C(=O)CCC(=O)O)o1 | -0.348 |
| CCOC(=O)c1c(N)c(C#N)nn1-c1ccccc1C(=O)OC | 0.616 |
| CCCC(=O)c1ccc(N2CCN(C(=O)c3ccc(Br)cc3)CC2)c(F)c1 | 0.3 |
| COC(=O)CC(NC(=O)c1ccc(C)cc1)c1ccccc1 (centres undefined) | -0.129 |
| COC(=O)C1=C(C)N=C2SC(C#N)=C(N)N2C1c1cccc(OC)c1 (centres undefined) | -1.34 |
| Cc1ccc(Cn2nnc3c(=O)n(CC(=O)N4CCN(c5ccccc5)CC4)cnc32)cc1 | -0.895 |

| SMILES | z-score |
| --- | --- |
| CCOC(=O)c1ccc(Nc2nc(C)cc(C)c2C#N)cc1 | -0.182 |
| Cc1nc(NCCc2ccccc2F)c(C#N)c(C)c1[N+](=O)[O-] | 0.24 |
| Cc1cc(C)cc(Oc2coc3cc(OC(=O)c4cccnc4)ccc3c2=O)c1 | -0.809 |
| O=C(c1cc2cc(Br)ccc2oc1=O)N1CCCC1 | 0.0138 |
| COc1cccc(NC(=O)Nc2cc(NC(=O)Nc3cccc(OC)c3)c(C)nc2C)c1 | -0.17 |
| COc1ccc(C(=O)Oc2cccc(/C=N/NC(N)=S)c2)cc1 | -0.117 |
| CCOC(=O)C1=C(C)NC2=C(C(=O)C(C(=O)OCC)C(c3ccco3)C2)C1c1ccccn1 (centres undefined) | -0.284 |
| CCOC(=O)c1[nH]c2ccccc2c1NC(=O)COC | -0.156 |
| Clc1ccc(CSc2nnc(NC3=NCCCCC3)s2)cc1 | 0.0188 |
| CCCOC(=O)Nc1nnc(CCC)s1 | 0.0541 |
| COCCN(Cc1cc2cc(C)c(C)cc2nc1Cl)C(=O)Nc1ccccc1 | -0.132 |
| C=CCC(C)(NCc1ccccc1)c1ccccc1 (centres undefined) | 0.26 |
| CC(NC(=O)COC(=O)c1ccco1)c1ccccc1 (centres undefined) | 0.533 |
| CCN(CC)c1ccc(C(=O)N/N=C(\C)c2cccc(OC)c2)cc1 | 0.289 |
| COc1cc(C(=O)O/N=C2/C=CC(=O)C(C)=C2C)cc(OC)c1OC | 0.811 |
| C=CCSc1nnc2n(CCc3ccccc3)c(=O)c3c4c(sc3n12)COC(C)(C)C4 | 0.22 |
| COc1ccc(C2C(C#N)=C(N)N(c3sc4c(c3C#N)CCCC4)C3=C2C(=O)CC(C)(C)C3)cc1OC (centres undefined) | 0.32 |
| c1ccc(-n2nnnc2NC2CCCCC2)cc1 | -0.018 |
| O=C(c1ccc(S(=O)(=O)N2CCCCC2)cc1)c1nnc(-c2ccc(Cl)cc2)o1 | 0.27 |
| Cc1ccc(SCCNC(=O)c2cccc([N+](=O)[O-])c2C)cc1 | -0.0182 |
| COC(=O)c1c(C(=O)OC)c2oc3ccccc3n2c1Cl | -0.407 |
| Clc1ccc(-n2nnnc2-c2cnc(-c3ccccn3)nc2-c2cccs2)cc1 | -1.83 |

| SMILES | z-score |
| --- | --- |
| Cc1ccc(S(=O)(=O)Nc2ccc3c(c2)nc2n3CCN(Cc3ccccc3)C2)cc1 | -0.43 |
| Cc1ccc(S(=O)(=O)n2cc(-c3ccccc3)c(N)n2)cc1 | -0.502 |
| C=CCSc1nnc(-c2ccncc2)n1-c1ccc(OCC)cc1 | -0.351 |
| CC(C)Cc1nc(N2CCOCC2)c(C#N)c2c1COC(C)(C)C2 | 2.42 |
| COc1ccc(CNC(=O)C2CC(=O)N(c3ccc(OCC(=O)N4C(C)CCCC4C)cc3)C2)cc1 (centres undefined) | 0.0922 |
| NS(=O)(=O)c1ccc(Nc2nc(-c3ccc(O)cc3O)cs2)cc1 | -0.0985 |
| O=C(Nc1ccccc1Oc1ccccc1)c1ccccc1F | -0.161 |
| CN(C)c1ccc(-c2nn3c(C4CCCCC4)nnc3s2)cc1 | 0.961 |
| Cc1[nH]c2c(ccc3ccccc32)c1C1C(CCN)C1(C)C (centres undefined) | 0.0887 |
| COc1ccc(OCc2nc3c4cc(OC)c(OC)cc4nc(=S)n3[nH]2)cc1 | -0.409 |
| COc1cccc(C2C(C(N)=O)=C(C)Nc3nc(CCCO)nn32)c1OC (centres undefined) | 0.753 |
| COC(=O)c1cccc(NC(=O)CCCOc2cccc(C)c2)c1 | -0.406 |
| CN(C)CCCN(Cc1ccccc1)C(=S)Nc1ccc(OC(F)F)cc1 | -0.428 |
| Cc1cccc(N2CCCC2=Nc2ccc(Br)cc2C#N)c1 | -0.254 |
| COC(=O)C(C)Sc1nnc(Cc2cc(=O)[nH]c(=O)[nH]2)n1-c1cccc(OC)c1 (centres undefined) | 0.0364 |
| COc1ccc(C2c3c(oc4ccccc4c3=O)C(=O)N2c2ccc(C)cn2)cc1OC (centres undefined) | 0.254 |
| COc1ccc(-c2nnnn2C)cc1S(=O)(=O)NCc1ccccc1 | 0.502 |
| CC(C)(C)OC(=O)N1CCOCCOCCN(C(=O)OC(C)(C)C)CCOCCOCC1 | 1.07 |
| O=C(Nc1ccc(Cl)cc1)Nc1cccnc1 | 0.471 |
| Cc1c(C(=O)Nc2ccc3c(c2)OCCO3)sc2nc(-c3ccccc3)cn12 | 0.0973 |
| Cc1onc(-c2ccccc2Cl)c1C(=O)Nc1ccc(CN2CCCC2)cc1 | 0.171 |
| Cc1cccc(N2CCN(C(=O)c3ccc4nc(-c5ccco5)c(-c5ccco5)nc4c3)CC2C)c1 (centres undefined) | -0.256 |

| SMILES | z-score |
| --- | --- |
| COC(=O)c1ccc(Cl)c(NC(=O)CN(c2ccc(OC)cc2)S(=O)(=O)c2ccccc2)c1 | -0.285 |
| O=c1[nH]c2cc3c(cc2cc1CN(Cc1ccc2c(c1)OCO2)Cc1nnnn1CC1CCCO1)OCO3 (centres undefined) | 0.00294 |
| Cc1cc(C)c(C)c(OCCCOc2cccc3cccnc23)c1 | 0.114 |
| CC(C)Nc1cc(N2CCCC2)ccc1[N+](=O)[O-] | -0.745 |
| Cc1nc2ccc(Br)cn2c1NC(C)(C)C | 0.582 |
| CCn1c(=O)c(=O)[nH]c2cc(C(=O)NC3CC3)ccc21 | -0.438 |
| CC1CCN(c2nc3nonc3nc2N2CCC(C)CC2)CC1 | -0.739 |
| O=C(COc1ccc(Cl)cc1)NCc1nnc(SCC(=O)NCc2ccc3c(c2)OCO3)o1 | 0.889 |
| Cc1cc(OCc2nc(-c3cccnc3)no2)c(C)cc1Br | 0.358 |
| CC1CC(=O)c2cnc(Nc3ccccc3)nc2C1 (centres undefined) | -0.16 |
| CCN1CCN(C(=S)Nc2ccc([N+](=O)[O-])cc2)CC1 | -0.0826 |
| Nc1cc(Cl)nc(N/N=C/c2c(O)ccc3ccccc23)n1 | 0.0481 |
| O=C(CNC(=O)c1ccccc1F)OC(C(=O)Nc1cc(C(F)(F)F)ccc1Cl)c1ccccc1 (centres undefined) | -0.141 |
| CCCC1(C(=O)O)NC(c2ccc(OC)cc2O)C2C(=O)N(c3ccc(OC)cc3)C(=O)C21 (centres undefined) | 0.2 |
| CC1CN(C(=O)c2ccc(C(=O)c3ccccc3)cc2)CC(C)O1 (centres undefined) | -0.13 |
| CCCC(=O)NC(=S)Nc1ccccc1N1CCOCC1 | -0.0717 |
| Cc1nn(-c2ccccc2)c2c1C(c1ccc(F)cc1F)C(C#N)=C(N)O2 (centres undefined) | -0.569 |
| Cc1cc(C(=O)O)sc1C | -0.186 |
| O=S(=O)(Nc1nc2ccccc2nc1N1CCN(c2ccccc2F)CC1)c1ccc(Cl)cc1 | 0.484 |
| O=C(O)c1cc(N2C(=O)C3C4C=CC(C4)C3C2=O)ccc1NCc1cccnc1 (centres undefined) | -0.31 |
| Nc1ccc(C(O)(C(F)(F)F)C(F)(F)F)cc1 | -0.145 |
